Experimental data from article PMC7819943, “Rice protein-binding microarrays: a tool to detect cis-acting elements near promoter regions in rice”.
This is one part of the list.

molecular target: T1, OsWOX13 (Oryza sativa, UniProt Q5QMM3 1-267); assay: protein-binding microarray (RPBM); PBS, 2% BSA, 51.3 ng/ul salmon testes DNA, 50 uM zinc acetate, 200 nM TF, 25 C, 1 h; high values mean tight binding; conditions: protein: recombinant; tags: N-terminal polyhistidine and DsRed monomer fusion (pET32a); label: CyDye5-dUTP incorporated in the synthesized complementary strand; 3' TTTTT single-stranded linker to array surface; dsDNA, one strand shown
T1 sequence: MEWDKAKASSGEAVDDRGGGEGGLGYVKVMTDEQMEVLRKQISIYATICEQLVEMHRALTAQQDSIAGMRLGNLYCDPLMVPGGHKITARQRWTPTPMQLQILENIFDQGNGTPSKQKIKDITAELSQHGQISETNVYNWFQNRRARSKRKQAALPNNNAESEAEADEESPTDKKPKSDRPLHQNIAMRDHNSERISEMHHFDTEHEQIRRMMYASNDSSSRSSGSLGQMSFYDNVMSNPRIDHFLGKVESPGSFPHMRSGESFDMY
Method in brief: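 Transcription factors, each fused N-terminally to a polyhistidine tag and DsRed, were expressed in E. coli BL21-CodonPlus and purified on Ni–NTA. A custom Agilent array was made double-stranded by primer extension with Cy5-dUTP and blocked with 2% BSA. It was incubated with 200 nM protein in PBS, 2% BSA, salmon testes DNA and 50 µM zinc acetate at 25 °C for 1 h, then washed. The binding signal is per-feature fluorescence intensity (arbitrary units) read on an Axon 4000B scanner.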

In order of falling binding signal:
1. ATTATTTGTGATTTGATTGCTAGTGATTTGAACTAATGGCCGGAGTCACCTAGTGCAG  64300 fluorescence intensity (a.u.)
2. GGTTTAATTAATTAATCGCGCCAACCCAGATGCTAATCAGCGGAGTCACCTAGTGCAG  50200 fluorescence intensity (a.u.)
3. ATTGTAGATTGAATTTAACCATGCGTTTGGGTATAGATTTCGGAGTCACCTAGTGCAG  37400 fluorescence intensity (a.u.)
4. ATTTAAATTTAAATTATCATAAACCATATCAACTTATATACGGAGTCACCTAGTGCAG  35300 fluorescence intensity (a.u.)
5. GAAATTGATTCCATCGTACTTCTCGATGGAAAGCTCGACGCGGAGTCACCTAGTGCAG  34300 fluorescence intensity (a.u.)
6. TACGGACTAATTGGATCGGGACTATTACTACTACTTCAGGCGGAGTCACCTAGTGCAG  33200 fluorescence intensity (a.u.)
7. GTTAATTAAACTATAGGCATCATGGTAATTTTCTTCAGGTCGGAGTCACCTAGTGCAG  31300 fluorescence intensity (a.u.)
8. GTAATTAAAACTCAATTAATCACATATTAATGGTTTTCTTCGGAGTCACCTAGTGCAG  27800 fluorescence intensity (a.u.)
9. AAACAAATTTGATTTGATTTAGGTCCAACAATGGATGCAACGGAGTCACCTAGTGCAG  27100 fluorescence intensity (a.u.)
10. TTTAATAGCTAATTTATATAATAGTTACTTATAAACATGTCGGAGTCACCTAGTGCAG  22100 fluorescence intensity (a.u.)
11. AAATTGTGTAATTTTGAAATTAATTAGGGCGTTTAGTGAACGGAGTCACCTAGTGCAG  21900 fluorescence intensity (a.u.)
12. CCTTGATGAGCAGTTACACTGTATACGCGCCCATCCCTACCGGAGTCACCTAGTGCAG  21600 fluorescence intensity (a.u.)
13. TCTGGTCGTAAATTGACAACCAACCTTAAGAAAATCCAGGCGGAGTCACCTAGTGCAG  21300 fluorescence intensity (a.u.)
14. AACCCTGATTACGAGTTAAGGCCCCGCGCCATTTGTGGGGCGGAGTCACCTAGTGCAG  20900 fluorescence intensity (a.u.)
15. AATTGATGAAATATTGAATTGAAGGTTTGAAGGATGTGGCCGGAGTCACCTAGTGCAG  19800 fluorescence intensity (a.u.)
16. TTCTTACAGGCAAATTGATATATGATGCGCCATAGGGCTACGGAGTCACCTAGTGCAG  18200 fluorescence intensity (a.u.)
17. CTCTAAATTTTAGATGTATAAATTTGAGGTGTACAAACTTCGGAGTCACCTAGTGCAG  16600 fluorescence intensity (a.u.)
18. GTTGACTGACTCGGTCTCCTGATCGGCCCGGGCTGGTCCGCGGAGTCACCTAGTGCAG  16400 fluorescence intensity (a.u.)
19. GCTGTTTGCCCATCAATCAAGAAATGGCGAACAAGGCTGTCGGAGTCACCTAGTGCAG  16400 fluorescence intensity (a.u.)
20. AGTTTAATTAGGATATTTGAGCATTTTAATCTCAGTTTAGCGGAGTCACCTAGTGCAG  16200 fluorescence intensity (a.u.)
21. ATGGATTCTTGCAATCTTGATTGGTTTATAGTAGTACTTGCGGAGTCACCTAGTGCAG  13400 fluorescence intensity (a.u.)
22. CATTTATATTGATGTTAATGAATCAAGATAGATATATATGCGGAGTCACCTAGTGCAG  13000 fluorescence intensity (a.u.)
23. CACGTGTACATGATAATATTGATTGCTAGGAGATATTAGCCGGAGTCACCTAGTGCAG  12400 fluorescence intensity (a.u.)
24. GTTAGATTAGGATCCAAAGTTTCACATATCCTCTTCTCTACGGAGTCACCTAGTGCAG  12200 fluorescence intensity (a.u.)
25. TATTTAATTTATTCTTATAATAATCAAGCAGATAATTCATCGGAGTCACCTAGTGCAG  11900 fluorescence intensity (a.u.)
26. AATTAACTATAGATTGAAGGACCATTCCTGTTCTGAATCTCGGAGTCACCTAGTGCAG  11300 fluorescence intensity (a.u.)
27. GAATCCTTAATTACTGGTTGTGCTGTGTGTTTGTGTTTCGCGGAGTCACCTAGTGCAG  9370 fluorescence intensity (a.u.)
28. GAGCCAACCAATCACAGACCAGCATCCTGCCACGTGTCAGCGGAGTCACCTAGTGCAG  7860 fluorescence intensity (a.u.)
29. CTAAAATGGCAAAGTGACGGCGCGCTCTCCGTATTGGCATCGGAGTCACCTAGTGCAG  6540 fluorescence intensity (a.u.)
30. CTCTCTCGTCTAATTTATACGGTCGAATCAAACGGTAATTCGGAGTCACCTAGTGCAG  5460 fluorescence intensity (a.u.)
31. TTGACGCTGATCAAACCAAATTAATTACTCTCTCCGTTTCCGGAGTCACCTAGTGCAG  4920 fluorescence intensity (a.u.)
32. AGTCTAACAAATTATTTCTGTACTTTGAGAATTGTTCTCTCGGAGTCACCTAGTGCAG  4820 fluorescence intensity (a.u.)
33. AAACGTAATCTAATAACAAAACAAATTACAGAACTGTAAACGGAGTCACCTAGTGCAG  4460 fluorescence intensity (a.u.)
34. TGTAAATTTCTGTGTTTAACTTTAATCGGCTATCTTATTTCGGAGTCACCTAGTGCAG  4460 fluorescence intensity (a.u.)
35. ATCCGTCATCTGATTTAATCTCATACGTCCGCTATCCTCCCGGAGTCACCTAGTGCAG  4210 fluorescence intensity (a.u.)
36. CTCGCCATCTTCGCCGTCCTTGCTTTCTTATATAAATTTTCGGAGTCACCTAGTGCAG  4080 fluorescence intensity (a.u.)
37. CCGGTCTCCAAATCTTTATTAATTGCTTCCTCAAAACCCCCGGAGTCACCTAGTGCAG  3980 fluorescence intensity (a.u.)
38. TTAGTAGATTGCAAAATTTACATTTAGGAGTACACATTTCCGGAGTCACCTAGTGCAG  3830 fluorescence intensity (a.u.)
39. ATACTGTAAAATGTTCTAATTAACATCACTTTAGAAAGATCGGAGTCACCTAGTGCAG  3660 fluorescence intensity (a.u.)
40. AAATATTCCTTGATTTGTTACAGCAAGCTCATTAGACAATCGGAGTCACCTAGTGCAG  3590 fluorescence intensity (a.u.)
41. TATATAATTTTATAGGGTTACTAGCCCGCGCAAGCAAGCTCGGAGTCACCTAGTGCAG  3400 fluorescence intensity (a.u.)
42. TTAACTAACATCTATATGAATTTAGACACGTATATGATGCCGGAGTCACCTAGTGCAG  3280 fluorescence intensity (a.u.)
